Laboratory results from ChEMBL document CHEMBL3508693.

Substrate: COCCCOc1cc(C[C@@H](C[C@H](N)[C@@H](O)C[C@H](C(=O)NCC(C)(C)C(N)=O)C(C)C)C(C)C)ccc1OC
Test: Enzyme kinetics constant (Km value) for CYP3A4 was determined in human liver microsome incubated with [14C]SPP100 hemifumarate
Format: ADME, microsomes

B1: Cytochrome P450 3A4 (Homo sapiens) (protein)
chain: MALIPDLAMETWLLLAVSLVLLYLYGTHSHGLFKKLGIPGPTPLPFLGNILSYHKGFCMFDMECHKKYGKVWGFYDGQQPVLAITDPDMIKTVLVKECYSVFTNRRPFGPVGFMKSAISIAEDEEWKRLRSLLSPTFTSGKLKEMVPIIAQYGDVLVRNLRREAETGKPVTLKDVFGAYSMDVITSTSFGVNIDSLNNPQDPFVENTKKLLRFDFLDPFFLSITVFPFLIPILEVLNICVFPREVTNFLRKSVKRMKESRLEDTQKHRVDFLQLMIDSQNSKETESHKALSDLELVAQSIIFIFAGYETTSSVLSFIMYELATHPDVQQKLQEEIDAVLPNKAPPTYDTVLQMEYLDMVVNETLRLFPIAMRLERVCKKDVEINGMFIPKGVVVMIPSYALHRDPKYWTEPEKFLPERFSKKNKDNIDPYIYTPFGSGPRNCIGMRFALMNMKLALIRVLQNFSFKPCKETQIPLKLSLGGLLQPEKPVVLKVESRDGTVSGA
  Km: 24.3 µM
  Vmax: 0.0246 µmol/min/mg
